# Source: the supplement of paper PMC10037445
# ± gives the standard deviation of the averaged measurements. Over roughly 2,900 compounds, “NF-kB SEAP reporter activity, fold change vs agonist alone” has its median near 0.99; the highest 2% begin near 2.6. The list shows a part of the results.
# Legend:
# RAW-Dual [1] = assay: NF-kB SEAP reporter activity, fold change vs agonist alone; higher = enhanced NF-kB activity
# Method in brief: (§1)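 RAW-Dual macrophages (50,000 cells/well in DMEM, 384-well plates) received 50 nL of library stock by pin tool, then a PRR agonist 1 h later, and were kept at 37 °C, 5% CO2. After 20 hours, supernatant was read for IRF by QuantiLuc luminescence and for NF-κB by QuantiBlue absorbance at 620 nm. Reporter activity is fold change over agonist-alone wells. Cytotoxic wells had IncuCyte confluency below 70% of agonist controls in both mask sets.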
# RAW-Dual [2] = assay: NF-kB SEAP reporter activity, fold change vs agonist alone; cytotoxicity flag (confluency mask): not cytotoxic; higher = enhanced NF-kB activity
# Method in brief: as §1
# RAW-Dual [3] = assay: NF-kB SEAP reporter activity, fold change vs agonist alone; cytotoxicity flag (confluency mask): cytotoxic (confluency <70% of control); higher = enhanced NF-kB activity
# Method in brief: as §1
# [4] = library stock concentration (final ~1000-fold dilution): 10 mM, cytotoxicity flag (confluency mask): not cytotoxic, agonist: Imiquimod (TLR7) […]
# [5] = library stock concentration (final ~1000-fold dilution): 10 mM, cytotoxicity flag (confluency mask): not cytotoxic, agonist: MPLA (TLR4) […]
# [6] = agonist: ODN 1826 (TLR9) 0.5 ug/mL
# [7] = agonist: Pam2CSK4 (TLR2/6) 0.1 ug/mL
# [8] = agonist: Pam3CSK4 (TLR2/1) 0.1 ug/mL
# [9] = library stock concentration (final ~1000-fold dilution): 10 mM, cytotoxicity flag (confluency mask): cytotoxic (confluency <70% of control), agonist: Imiquimod (TLR7) […]
# [10] = library stock concentration (final ~1000-fold dilution): 10 mM, cytotoxicity flag (confluency mask): cytotoxic (confluency <70% of control), agonist: MPLA (TLR4) […]
compound,measurement,setting,value
CCN(CC)CC#CCOC(=O)C(O)(c1ccccc1)C1CCCCC1 (centres undefined),NF-kB SEAP reporter activity,RAW-Dual [1]; [4],1.71
same,NF-kB SEAP reporter activity,RAW-Dual [1]; [5],1.37
CCN(CC)CC#CCOC(=O)C(O)(c1ccccc1)C1CCCCC1 (centres undefined) (library stock concentration (final ~1000-fold dilution): 10 mM),NF-kB SEAP reporter activity,RAW-Dual [2]; agonist: LPS (TLR4) 0.1 ug/mL,1.59
same,NF-kB SEAP reporter activity,RAW-Dual [2]; [6],1.11
same,NF-kB SEAP reporter activity,RAW-Dual [2]; [7],0.998
same,NF-kB SEAP reporter activity,RAW-Dual [2]; [8],1.28
O=C(Cc1cccc(OC(F)(F)F)c1)Nc1ccc(CCCCc2nnc(NC(=O)Cc3ccccn3)s2)nn1 (library stock concentration (final ~1000-fold dilution): 10 mM),NF-kB SEAP reporter activity,RAW-Dual [2]; agonist: LPS (TLR4) 0.1 ug/mL,1.33
same,NF-kB SEAP reporter activity,RAW-Dual [2]; [6],0.805
same,NF-kB SEAP reporter activity,RAW-Dual [2]; [7],0.518
same,NF-kB SEAP reporter activity,RAW-Dual [2]; [8],0.624
O=C(Cc1cccc(OC(F)(F)F)c1)Nc1ccc(CCCCc2nnc(NC(=O)Cc3ccccn3)s2)nn1,NF-kB SEAP reporter activity,RAW-Dual [1]; [4],0.884
same,NF-kB SEAP reporter activity,RAW-Dual [1]; [5],1.29
CC(C)Nc1cccnc1N1CCN(C(=O)c2cc3cc(NS(C)(=O)=O)ccc3[nH]2)CC1.CS(=O)(=O)O,NF-kB SEAP reporter activity,RAW-Dual [1]; [4],1.13
same,NF-kB SEAP reporter activity,RAW-Dual [1]; [5],1.06
CC(C)Nc1cccnc1N1CCN(C(=O)c2cc3cc(NS(C)(=O)=O)ccc3[nH]2)CC1.CS(=O)(=O)O (library stock concentration (final ~1000-fold dilution): 10 mM),NF-kB SEAP reporter activity,RAW-Dual [2]; agonist: LPS (TLR4) 0.1 ug/mL,1.31
same,NF-kB SEAP reporter activity,RAW-Dual [2]; [6],1.09
same,NF-kB SEAP reporter activity,RAW-Dual [2]; [7],0.93
same,NF-kB SEAP reporter activity,RAW-Dual [2]; [8],0.697
CN(c1ncccc1CNc1nc(Nc2ccc3c(c2)CC(=O)N3)ncc1C(F)(F)F)S(C)(=O)=O.Cl,NF-kB SEAP reporter activity,RAW-Dual [1]; [9],0.169
same,NF-kB SEAP reporter activity,RAW-Dual [1]; [10],0.247
CN(c1ncccc1CNc1nc(Nc2ccc3c(c2)CC(=O)N3)ncc1C(F)(F)F)S(C)(=O)=O.Cl (library stock concentration (final ~1000-fold dilution): 10 mM),NF-kB SEAP reporter activity,RAW-Dual [3]; agonist: LPS (TLR4) 0.1 ug/mL,0.194
same,NF-kB SEAP reporter activity,RAW-Dual [3]; [6],0.29
same,NF-kB SEAP reporter activity,RAW-Dual [3]; [7],0.0618
same,NF-kB SEAP reporter activity,RAW-Dual [3]; [8],0.135
CCN(Cc1ccncc1)C(=O)C(CO)c1ccccc1 (centres undefined) (library stock concentration (final ~1000-fold dilution): 10 mM),NF-kB SEAP reporter activity,RAW-Dual [2]; agonist: LPS (TLR4) 0.1 ug/mL,1.04
same,NF-kB SEAP reporter activity,RAW-Dual [2]; [6],1.07
same,NF-kB SEAP reporter activity,RAW-Dual [2]; [7],1.21
same,NF-kB SEAP reporter activity,RAW-Dual [2]; [8],0.931
CCN(Cc1ccncc1)C(=O)C(CO)c1ccccc1 (centres undefined),NF-kB SEAP reporter activity,RAW-Dual [1]; [4],0.911
same,NF-kB SEAP reporter activity,RAW-Dual [1]; [5],1.04
c1ccc2c(-c3nccs3)c[nH]c2c1 (library stock concentration (final ~1000-fold dilution): 10 mM),NF-kB SEAP reporter activity,RAW-Dual [2]; agonist: LPS (TLR4) 0.1 ug/mL,1.08
same,NF-kB SEAP reporter activity,RAW-Dual [2]; [6],0.892
same,NF-kB SEAP reporter activity,RAW-Dual [2]; [7],0.899
same,NF-kB SEAP reporter activity,RAW-Dual [2]; [8],0.934
c1ccc2c(-c3nccs3)c[nH]c2c1,NF-kB SEAP reporter activity,RAW-Dual [1]; [4],0.853
same,NF-kB SEAP reporter activity,RAW-Dual [1]; [5],0.948
CNCCC(Oc1cccc2ccccc12)c1cccs1.Cl (centres undefined) (library stock concentration (final ~1000-fold dilution): 10 mM),NF-kB SEAP reporter activity,RAW-Dual [3]; agonist: LPS (TLR4) 0.1 ug/mL,1.62
same,NF-kB SEAP reporter activity,RAW-Dual [3]; [6],0.325
same,NF-kB SEAP reporter activity,RAW-Dual [3]; [7],0.507
same,NF-kB SEAP reporter activity,RAW-Dual [3]; [8],0.555
CNCCC(Oc1cccc2ccccc12)c1cccs1.Cl (centres undefined),NF-kB SEAP reporter activity,RAW-Dual [1]; [9],1.77
same,NF-kB SEAP reporter activity,RAW-Dual [1]; [10],1.7
CC(C)=CCC[C@](C)(O[C@@H]1O[C@H](CO)[C@@H](O)C(O)[C@H]1O)[C@H]1CC[C@]2(C)[C@H]1[C@H](O)CC1[C@@]3(C)CC[C@H](O)C(C)(C)[C@@H]3[C@@H](O[C@@H]3O[C@H](CO)[C@@H](O)[C@H](O)[C@H]3O[C@@H]3O[C@@H](C)[C@H](O)[C@@H](O)[C@H]3O)C[C@]12C (some centres undefined),NF-kB SEAP reporter activity,RAW-Dual [1]; [4],0.925
same,NF-kB SEAP reporter activity,RAW-Dual [1]; [5],1.04
CC(C)=CCC[C@](C)(O[C@@H]1O[C@H](CO)[C@@H](O)C(O)[C@H]1O)[C@H]1CC[C@]2(C)[C@H]1[C@H](O)CC1[C@@]3(C)CC[C@H](O)C(C)(C)[C@@H]3[C@@H](O[C@@H]3O[C@H](CO)[C@@H](O)[C@H](O)[C@H]3O[C@@H]3O[C@@H](C)[C@H](O)[C@@H](O)[C@H]3O)C[C@]12C (some centres undefined) (library stock concentration (final ~1000-fold dilution): 10 mM),NF-kB SEAP reporter activity,RAW-Dual [2]; agonist: LPS (TLR4) 0.1 ug/mL,1.14
same,NF-kB SEAP reporter activity,RAW-Dual [2]; [6],1.19
same,NF-kB SEAP reporter activity,RAW-Dual [2]; [7],1.18
same,NF-kB SEAP reporter activity,RAW-Dual [2]; [8],0.983
COC(C)Cn1c(=O)n(C)c2cnc3ccc(-c4cncc(C(C)(C)O)c4)cc3c21 (centres undefined),NF-kB SEAP reporter activity,RAW-Dual [1]; [4],0.865
same,NF-kB SEAP reporter activity,RAW-Dual [1]; [5],1.85
COC(C)Cn1c(=O)n(C)c2cnc3ccc(-c4cncc(C(C)(C)O)c4)cc3c21 (centres undefined) (library stock concentration (final ~1000-fold dilution): 10 mM),NF-kB SEAP reporter activity,RAW-Dual [2]; agonist: LPS (TLR4) 0.1 ug/mL,1.84
same,NF-kB SEAP reporter activity,RAW-Dual [2]; [6],1.26
same,NF-kB SEAP reporter activity,RAW-Dual [2]; [7],0.476
same,NF-kB SEAP reporter activity,RAW-Dual [2]; [8],1.03
CO[C@H](c1c(NC(=O)Nc2cnc(-n3nccn3)c(Cl)c2)cnc2cc(Cl)nn12)[C@@H](C)OC (library stock concentration (final ~1000-fold dilution): 10 mM),NF-kB SEAP reporter activity,RAW-Dual [2]; agonist: LPS (TLR4) 0.1 ug/mL,1.37
same,NF-kB SEAP reporter activity,RAW-Dual [2]; [6],0.862
same,NF-kB SEAP reporter activity,RAW-Dual [2]; [7],0.76
same,NF-kB SEAP reporter activity,RAW-Dual [2]; [8],0.777
CO[C@H](c1c(NC(=O)Nc2cnc(-n3nccn3)c(Cl)c2)cnc2cc(Cl)nn12)[C@@H](C)OC,NF-kB SEAP reporter activity,RAW-Dual [1]; [4],0.986
same,NF-kB SEAP reporter activity,RAW-Dual [1]; [5],0.994
CC(C)=CCc1cc(-c2coc3cc(O)ccc3c2=O)ccc1O,NF-kB SEAP reporter activity,RAW-Dual [1]; [4],1.15
same,NF-kB SEAP reporter activity,RAW-Dual [1]; [5],1.23
CC(C)=CCc1cc(-c2coc3cc(O)ccc3c2=O)ccc1O (library stock concentration (final ~1000-fold dilution): 10 mM),NF-kB SEAP reporter activity,RAW-Dual [2]; agonist: LPS (TLR4) 0.1 ug/mL,1.59
same,NF-kB SEAP reporter activity,RAW-Dual [2]; [6],1.2
same,NF-kB SEAP reporter activity,RAW-Dual [2]; [7],0.94
same,NF-kB SEAP reporter activity,RAW-Dual [2]; [8],1.64
COc1cc2ccc(=O)oc2c(OC)c1O (library stock concentration (final ~1000-fold dilution): .1 mM),NF-kB SEAP reporter activity,RAW-Dual [2]; agonist: LPS (TLR4) 0.1 ug/mL,0.387
same,NF-kB SEAP reporter activity,RAW-Dual [2]; [6],1.09
same,NF-kB SEAP reporter activity,RAW-Dual [2]; [7],1.02
same,NF-kB SEAP reporter activity,RAW-Dual [2]; [8],0.896
COc1cc2ccc(=O)oc2c(OC)c1O,NF-kB SEAP reporter activity,"RAW-Dual [1]; library stock concentration (final ~1000-fold dilution): .1 mM, cytotoxicity flag (confluency mask): not cytotoxic, agonist: Imiquimod (TLR7) […]",1.02
same,NF-kB SEAP reporter activity,"RAW-Dual [1]; library stock concentration (final ~1000-fold dilution): .1 mM, cytotoxicity flag (confluency mask): not cytotoxic, agonist: MPLA (TLR4) […]",0.485
CN1C2CCCC1CC(NC(=O)c1nn(C)c3ccccc13)C2 (centres undefined),NF-kB SEAP reporter activity,RAW-Dual [1]; [5],0.999
CN1C2CCCC1CC(NC(=O)c1nn(C)c3ccccc13)C2 (centres undefined) (library stock concentration (final ~1000-fold dilution): 10 mM),NF-kB SEAP reporter activity,RAW-Dual [2]; agonist: LPS (TLR4) 0.1 ug/mL,0.938
same,NF-kB SEAP reporter activity,RAW-Dual [2]; [6],0.877
same,NF-kB SEAP reporter activity,RAW-Dual [2]; [7],0.899
same,NF-kB SEAP reporter activity,RAW-Dual [2]; [8],0.889
CCCCCCCCc1ccc(CCC(N)(CO)CO)cc1.Cl,NF-kB SEAP reporter activity,RAW-Dual [1]; [10],1.84
CCCCCCCCc1ccc(CCC(N)(CO)CO)cc1.Cl (library stock concentration (final ~1000-fold dilution): 10 mM),NF-kB SEAP reporter activity,RAW-Dual [3]; agonist: LPS (TLR4) 0.1 ug/mL,0.682
same,NF-kB SEAP reporter activity,RAW-Dual [3]; [6],0.784
same,NF-kB SEAP reporter activity,RAW-Dual [3]; [7],0.272
same,NF-kB SEAP reporter activity,RAW-Dual [3]; [8],0.37
Cc1ccc(C(=O)c2cc(O)c(O)c([N+](=O)[O-])c2)cc1,NF-kB SEAP reporter activity,RAW-Dual [1]; [4],0.872
same,NF-kB SEAP reporter activity,RAW-Dual [1]; [5],1.11
Cc1ccc(C(=O)c2cc(O)c(O)c([N+](=O)[O-])c2)cc1 (library stock concentration (final ~1000-fold dilution): 10 mM),NF-kB SEAP reporter activity,RAW-Dual [2]; agonist: LPS (TLR4) 0.1 ug/mL,1.17
same,NF-kB SEAP reporter activity,RAW-Dual [2]; [6],0.719
same,NF-kB SEAP reporter activity,RAW-Dual [2]; [7],0.842
same,NF-kB SEAP reporter activity,RAW-Dual [2]; [8],0.655
O=C([O-])c1ccccc1O.[Na+] (library stock concentration (final ~1000-fold dilution): 10 mM),NF-kB SEAP reporter activity,RAW-Dual [2]; agonist: LPS (TLR4) 0.1 ug/mL,1.04 ± 0.14
same,NF-kB SEAP reporter activity,RAW-Dual [2]; [6],0.979 ± 0.11
same,NF-kB SEAP reporter activity,RAW-Dual [2]; [7],1.04 ± 0.067
same,NF-kB SEAP reporter activity,RAW-Dual [2]; [8],1.12 ± 0.055
O=C([O-])c1ccccc1O.[Na+],NF-kB SEAP reporter activity,RAW-Dual [1]; [4],0.997 ± 0.1
same,NF-kB SEAP reporter activity,RAW-Dual [1]; [5],1.02 ± 0.037
